Consider 18 sequences from paper PMC12820563.

Some of the results follow. The list includes weakly bound sequences.

The test addresses T1, MBP-FoxP3dN (UniProt Q99JB6).
T1 sequence: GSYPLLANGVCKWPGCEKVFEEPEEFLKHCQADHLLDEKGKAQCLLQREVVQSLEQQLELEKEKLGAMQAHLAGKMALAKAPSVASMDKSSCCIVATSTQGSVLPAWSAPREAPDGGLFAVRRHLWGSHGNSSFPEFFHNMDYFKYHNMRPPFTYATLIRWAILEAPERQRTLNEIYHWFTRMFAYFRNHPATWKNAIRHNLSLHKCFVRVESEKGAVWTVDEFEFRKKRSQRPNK
In words: PD-seq (MBP pull-down with sequencing). The conditions noted are these: 20 mM Tris-HCl pH 7.5, 100 mM NaCl, 1.5 mM MgCl2, 0.4 uM protein, 0.1 uM dsDNA library, 30 min, room temperature, amylose pull-down; high values mean tight binding; double strand, one strand shown.
Consider “GATGATTGTTCTCCCAGCTGATGAATTATCCGTTTCGAGTAAACAAATTTTCCTAATCTTTCTGTTCAAGCGCCATCTAC”, for which the binding signal (RPM ratio (pull-down/input)) was 0.339.

For “GATGATTGTTCTCCCAGCTGATGAATTTTCGCATTCGAGTAAACAAATTTTCCTAATCTTTCTGTTCAAGCGCCATCTAC”, the binding signal (RPM ratio (pull-down/input)) was found to be 6.27.

For “GATGATTGTTCTCCCAGCTGATGAATTGTCTAGTTCGAGTAAACAAATTTTCCTAATCTTTCTGTTCAAGCGCCATCTAC”, the binding signal (RPM ratio (pull-down/input)) came out at 0.488.

For “GATGATTGTTCTCCCAGCTGATGAATTAGATGCGTCGAGTAAACAAATTTTCCTAATCTTTCTGTTCAAGCGCCATCTAC”, the binding signal (RPM ratio (pull-down/input)) was determined as 2.24.

On to “GATGATTGTTCTCCCAGCTGATGAATTGTTGCAATCGAGTAAACAAATTTTCCTAATCTTTCTGTTCAAGCGCCATCTAC”, for which the binding signal (RPM ratio (pull-down/input)) was found to be 5.54.

On to “GATGATTGTTCTCCCAGCTGATGAATTCATATGGTCGAGTAAACAAATTTTCCTAATCTTTCTGTTCAAGCGCCATCTAC”, for which the binding signal (RPM ratio (pull-down/input)) was 0.675.

For “GATGATTGTTCTCCCAGCTGATGAATTAAGTCGTTCGAGTAAACAAATTTTCCTAATCTTTCTGTTCAAGCGCCATCTAC”, the binding signal (RPM ratio (pull-down/input)) worked out at 0.672.

Regarding “GATGATTGTTCTCCCAGCTGATGAATTAGAGTTTTCGAGTAAACAAATTTTCCTAATCTTTCTGTTCAAGCGCCATCTAC”, the binding signal (RPM ratio (pull-down/input)) amounted to 0.705.

As to “GATGATTGTTCTCCCAGCTGATGAATTACGGCATTCGAGTAAACAAATTTTCCTAATCTTTCTGTTCAAGCGCCATCTAC”, the binding signal (RPM ratio (pull-down/input)) turned out to be 5.15.

Regarding “GATGATTGTTCTCCCAGCTGATGAATTGCTGAAATCGAGTAAACAAATTTTCCTAATCTTTCTGTTCAAGCGCCATCTAC”, the binding signal (RPM ratio (pull-down/input)) worked out at 0.451.

For the sequence “GATGATTGTTCTCCCAGCTGATGAATTTGGTATATCGAGTAAACAAATTTTCCTAATCTTTCTGTTCAAGCGCCATCTAC”, the binding signal (RPM ratio (pull-down/input)) was 2.5.

For the sequence “GATGATTGTTCTCCCAGCTGATGAATTGGTTTGATCGAGTAAACAAATTTTCCTAATCTTTCTGTTCAAGCGCCATCTAC”, the binding signal (RPM ratio (pull-down/input)) was determined as 1.11.

As for “GATGATTGTTCTCCCAGCTGATGAATTAGATAATTCGAGTAAACAAATTTTCCTAATCTTTCTGTTCAAGCGCCATCTAC”, the binding signal (RPM ratio (pull-down/input)) came to 0.369.

Regarding “GATGATTGTTCTCCCAGCTGATGAATTAGTGGTATCGAGTAAACAAATTTTCCTAATCTTTCTGTTCAAGCGCCATCTAC”, the binding signal (RPM ratio (pull-down/input)) came to 1.83.

As for “GATGATTGTTCTCCCAGCTGATGAATTCCCTAACTCGAGTAAACAAATTTTCCTAATCTTTCTGTTCAAGCGCCATCTAC”, the binding signal (RPM ratio (pull-down/input)) is 0.266.

As to “GATGATTGTTCTCCCAGCTGATGAATTGCACGCCTCGAGTAAACAAATTTTCCTAATCTTTCTGTTCAAGCGCCATCTAC”, the binding signal (RPM ratio (pull-down/input)) was determined as 1.28.

Consider “GATGATTGTTCTCCCAGCTGATGAATTCCCTGCCTCGAGTAAACAAATTTTCCTAATCTTTCTGTTCAAGCGCCATCTAC”, for which the binding signal (RPM ratio (pull-down/input)) came out at 0.312.

For the sequence “GATGATTGTTCTCCCAGCTGATGAATTACAGATATCGAGTAAACAAATTTTCCTAATCTTTCTGTTCAAGCGCCATCTAC”, the binding signal (RPM ratio (pull-down/input)) amounted to 0.486.
